Test results as given in the supplement of paper PMC4967469.
The IC50 comes from the fitted curve, where viability falls to half of the control; a limit (>, <) means that the fit lies beyond the doses tested. For AUC the same curve is integrated over the 256-fold range of doses and scaled to a fraction; the more sensitive the line, the further below 1. For some of these results: The top dose, if marked as inferred, was derived from the fitted curves, not read from the paper. For some of these results: Drugs with an entry number were screened twice under separate entries, and the two screens often disagree.

Experiments:
Test in all cases: Viability of human cancer cell lines after 72 h of drug (GDSC screen)
AUY922 = compound: CCNC(=O)c1noc(-c2cc(C(C)C)c(O)cc2O)c1-c1ccc(CN2CCOCC2)cc1 [AUY922]; settings: top dose 0.256 µM; top dose inferred
Protocol: (§1)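 Human cancer cell lines in 384-well plates, medium with 10% serum, drug for 72 h over a 256-fold dose range (nine 2-fold or five 4-fold steps up to the top dose). Adherent lines were fixed and stained with the nucleic acid dye Syto60, suspension lines read with resazurin; signal relative to control wells, capped at 0 and 100%. One two-parameter sigmoid per drug and line, fitted in a mixed model over all curves with the slope shared within a line.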

KIN001-270 = compound: Cc1ccc(Nc2cc(-c3cccc(N4C(=O)c5ccccc5C4=O)c3)ncn2)cc1NS(C)(=O)=O [KIN001-270]; settings: top dose 20 µM; top dose inferred
Protocol: as §1

T0901317 = compound: O=S(=O)(c1ccccc1)N(CC(F)(F)F)c1ccc(C(O)(C(F)(F)F)C(F)(F)F)cc1 [T0901317]; settings: top dose 10.24 µM; top dose inferred
Protocol: as §1

Bicalutamide = compound: CC(O)(CS(=O)(=O)c1ccc(F)cc1)C(=O)Nc1ccc(C#N)c(C(F)(F)F)c1 [Bicalutamide]; settings: top dose inferred
Protocol: as §1

MP470 = compound: S=C(NCc1ccc2c(c1)OCO2)N1CCN(c2ncnc3c2oc2ccccc23)CC1 [MP470]; settings: top dose 20 µM; top dose inferred
Protocol: as §1

LFM-A13 = compound: C/C(O)=C(\C#N)C(=O)Nc1cc(Br)ccc1Br [LFM-A13]; settings: top dose 16 µM; top dose inferred
Protocol: as §1

Nilotinib = compound: Cc1cn(-c2cc(NC(=O)c3ccc(C)c(Nc4nccc(-c5cccnc5)n4)c3)cc(C(F)(F)F)c2)cn1 [Nilotinib]; settings: top dose 2 µM
Protocol: as §1

TW-37 = compound: CC(C)c1ccccc1Cc1cc(C(=O)Nc2ccc(S(=O)(=O)c3ccccc3C(C)(C)C)cc2)c(O)c(O)c1O [TW-37]; settings: top dose 5 µM
Protocol: as §1

[1] = top dose 1.024 µM, screen: GDSC drug entry 150
[2] = top dose 10 µM, screen: GDSC drug entry 1502

Row | Cell Line | AUC (AUY922) | IC50 (AUY922) | AUC (KIN001-270) | IC50 (KIN001-270) | AUC (T0901317) | IC50 (T0901317) | AUC (Bicalutamide; [1]) | IC50 (Bicalutamide; [1]) | AUC (Bicalutamide; [2]) | IC50 (Bicalutamide; [2]) | AUC (MP470) | IC50 (MP470) | AUC (LFM-A13) | IC50 (LFM-A13) | AUC (Nilotinib) | IC50 (Nilotinib) | AUC (TW-37) | IC50 (TW-37)
1 | HCC38 (breast, adherent) | 0.569 | 0.0252 µM | 0.973 | > 20 µM | 0.984 | > 10.2 µM | 0.978 | > 1.02 µM | 0.985 | > 10 µM | 0.969 | > 20 µM | 0.986 | > 16 µM | 0.986 | > 2 µM | 0.59 | 0.562 µM
2 | CCF-STTG1 (glioma, adherent) | 0.385 | 0.00768 µM | 0.961 | > 20 µM | – | – | 0.939 | > 1.02 µM | 0.987 | > 10 µM | 0.988 | > 20 µM | 0.98 | > 16 µM | 0.985 | > 2 µM | 0.721 | 1.33 µM
3 | Capan-2 (pancreas, adherent) | 0.52 | 0.0184 µM | 0.985 | > 20 µM | 0.984 | > 10.2 µM | 0.985 | > 1.02 µM | 0.982 | > 10 µM | 0.977 | > 20 µM | 0.952 | > 16 µM | 0.985 | > 2 µM | 0.847 | 4.93 µM
4 | BT-483 (breast, adherent) | 0.977 | > 0.256 µM | 0.967 | > 20 µM | 0.97 | > 10.2 µM | 0.977 | > 1.02 µM | 0.975 | > 10 µM | 0.875 | > 20 µM | 0.977 | > 16 µM | 0.974 | > 2 µM | 0.845 | > 5 µM
5 | HCC202 (breast, adherent) | 0.735 | 0.0999 µM | 0.928 | > 20 µM | – | – | 0.967 | > 1.02 µM | 0.965 | > 10 µM | – | – | 0.857 | > 16 µM | 0.98 | > 2 µM | 0.96 | > 5 µM
6 | HuH-7 (liver, adherent) | 0.684 | 0.0524 µM | 0.981 | > 20 µM | – | – | 0.987 | > 1.02 µM | 0.986 | > 10 µM | 0.439 | 0.852 µM | 0.979 | > 16 µM | 0.978 | > 2 µM | 0.35 | 0.12 µM
7 | KP-2 (pancreas, adherent) | 0.72 | 0.0712 µM | 0.984 | > 20 µM | 0.985 | > 10.2 µM | 0.986 | > 1.02 µM | 0.942 | > 10 µM | 0.983 | > 20 µM | 0.986 | > 16 µM | 0.985 | > 2 µM | 0.729 | 1.49 µM
